Reference: PMC9911399, “Two distinct binding modes provide the RNA-binding protein RbFox with extraordinary sequence specificity”
Substitutions are numbered along the chain they refer to; changes in the protein carry UniProt numbers. The list shows a part of the results.

T1: RBFOX1 RRM (Homo sapiens, UniProt Q9NWB1 109-208)
T1 sequence: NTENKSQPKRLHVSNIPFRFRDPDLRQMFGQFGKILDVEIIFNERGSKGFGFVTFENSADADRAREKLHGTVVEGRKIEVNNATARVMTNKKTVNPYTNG

B1: AUAAGUU (DNA:RNA)
RNA: GGGAGACCGGAAUUCAGAUUGUCCAUAAGUUUUAAAUCCCGUCGUAGCCACCA
DNA 1: CAATCTGAATTCCGGTCTCCC
DNA 2: TGGTGGCTACGACGGGATT
B2: UGACUGU (DNA:RNA)
RNA: B1 RNA with A25U, U26G, A28C, G29U, U30G
DNA 1: CAATCTGAATTCCGGTCTCCC
DNA 2: TGGTGGCTACGACGGGATT
B3: CACCAAC (DNA:RNA)
RNA: GGGAGACCGGAAUUCAGAUUGUCCCACCAACUUAAAUCCCGUCGUAGCCACCA
DNA 1: CAATCTGAATTCCGGTCTCCC
DNA 2: TGGTGGCTACGACGGGATT
B4: UCCCUUG (DNA:RNA)
RNA: B3 RNA with C25U, A26C, A29U, A30U, C31G
DNA 1: CAATCTGAATTCCGGTCTCCC
DNA 2: TGGTGGCTACGACGGGATT
B5: UUUGAGC (DNA:RNA)
RNA: B3 RNA with C25U, A26U, C27U, C28G, A30G
DNA 1: CAATCTGAATTCCGGTCTCCC
DNA 2: TGGTGGCTACGACGGGATT
B6: CGGCUAC (DNA:RNA)
RNA: B3 RNA with A26G, C27G, A29U
DNA 1: CAATCTGAATTCCGGTCTCCC
DNA 2: TGGTGGCTACGACGGGATT
B7: UCUCAUC (DNA:RNA)
RNA: B3 RNA with C25U, A26C, C27U, A30U
DNA 1: CAATCTGAATTCCGGTCTCCC
DNA 2: TGGTGGCTACGACGGGATT
B8: UUACUCG (DNA:RNA)
RNA: B1 RNA with A25U, A28C, G29U, U30C, U31G
DNA 1: CAATCTGAATTCCGGTCTCCC
DNA 2: TGGTGGCTACGACGGGATT
B9: ACCGGGU (DNA:RNA)
RNA: B1 RNA with U26C, A27C, A28G, U30G
DNA 1: CAATCTGAATTCCGGTCTCCC
DNA 2: TGGTGGCTACGACGGGATT
B10: AAUGGUG (DNA:RNA)
RNA: B1 RNA with U26A, A27U, A28G, U31G
DNA 1: CAATCTGAATTCCGGTCTCCC
DNA 2: TGGTGGCTACGACGGGATT
B11: CAACGAU (DNA:RNA)
RNA: B3 RNA with C27A, A29G, C31U
DNA 1: CAATCTGAATTCCGGTCTCCC
DNA 2: TGGTGGCTACGACGGGATT
B12: GCUUGCG (DNA:RNA)
RNA: B1 RNA with A25G, U26C, A27U, A28U, U30C, U31G
DNA 1: CAATCTGAATTCCGGTCTCCC
DNA 2: TGGTGGCTACGACGGGATT
B13: ACCAUGU (DNA:RNA)
RNA: B1 RNA with U26C, A27C, G29U, U30G
DNA 1: CAATCTGAATTCCGGTCTCCC
DNA 2: TGGTGGCTACGACGGGATT
B14: UCGACAC (DNA:RNA)
RNA: B3 RNA with C25U, A26C, C27G, C28A, A29C
DNA 1: CAATCTGAATTCCGGTCTCCC
DNA 2: TGGTGGCTACGACGGGATT
B15: GUCCUAU (DNA:RNA)
RNA: B3 RNA with C25G, A26U, A29U, C31U
DNA 1: CAATCTGAATTCCGGTCTCCC
DNA 2: TGGTGGCTACGACGGGATT
B16: CGUAAUA (DNA:RNA)
RNA: B1 RNA with A25C, U26G, A27U, G29A, U31A
DNA 1: CAATCTGAATTCCGGTCTCCC
DNA 2: TGGTGGCTACGACGGGATT
B17: UGCCGCC (DNA:RNA)
RNA: B3 RNA with C25U, A26G, A29G, A30C
DNA 1: CAATCTGAATTCCGGTCTCCC
DNA 2: TGGTGGCTACGACGGGATT
B18: CACGCUG (DNA:RNA)
RNA: B3 RNA with C28G, A29C, A30U, C31G
DNA 1: CAATCTGAATTCCGGTCTCCC
DNA 2: TGGTGGCTACGACGGGATT
B19: UGGAUGG (DNA:RNA)
RNA: B1 RNA with A25U, U26G, A27G, G29U, U30G, U31G
DNA 1: CAATCTGAATTCCGGTCTCCC
DNA 2: TGGTGGCTACGACGGGATT
B20: CUAGCAG (DNA:RNA)
RNA: B1 RNA with A25C, A28G, G29C, U30A, U31G
DNA 1: CAATCTGAATTCCGGTCTCCC
DNA 2: TGGTGGCTACGACGGGATT
B21: CGUCGUC (DNA:RNA)
RNA: B3 RNA with A26G, C27U, A29G, A30U
DNA 1: CAATCTGAATTCCGGTCTCCC
DNA 2: TGGTGGCTACGACGGGATT
B22: AAGGGUU (DNA:RNA)
RNA: B1 RNA with U26A, A27G, A28G
DNA 1: CAATCTGAATTCCGGTCTCCC
DNA 2: TGGTGGCTACGACGGGATT
B23: CUUAACC (DNA:RNA)
RNA: B3 RNA with A26U, C27U, C28A, A30C
DNA 1: CAATCTGAATTCCGGTCTCCC
DNA 2: TGGTGGCTACGACGGGATT
B24: AUACCCA (DNA:RNA)
RNA: B1 RNA with A28C, G29C, U30C, U31A
DNA 1: CAATCTGAATTCCGGTCTCCC
DNA 2: TGGTGGCTACGACGGGATT
B25: UCGGCUC (DNA:RNA)
RNA: B1 RNA with A25U, U26C, A27G, A28G, G29C, U31C
DNA 1: CAATCTGAATTCCGGTCTCCC
DNA 2: TGGTGGCTACGACGGGATT
B26: UGCAUGA (DNA:RNA)
RNA: B1 RNA with A25U, U26G, A27C, G29U, U30G, U31A
DNA 1: CAATCTGAATTCCGGTCTCCC
DNA 2: TGGTGGCTACGACGGGATT
B27: AAGACAU (DNA:RNA)
RNA: B1 RNA with U26A, A27G, G29C, U30A
DNA 1: CAATCTGAATTCCGGTCTCCC
DNA 2: TGGTGGCTACGACGGGATT
B28: ACGAUUU (DNA:RNA)
RNA: B1 RNA with U26C, A27G, G29U
DNA 1: CAATCTGAATTCCGGTCTCCC
DNA 2: TGGTGGCTACGACGGGATT
B29: GCACUCG (DNA:RNA)
RNA: B1 RNA with A25G, U26C, A28C, G29U, U30C, U31G
DNA 1: CAATCTGAATTCCGGTCTCCC
DNA 2: TGGTGGCTACGACGGGATT
B30: CUAUUCA (DNA:RNA)
RNA: B1 RNA with A25C, A28U, G29U, U30C, U31A
DNA 1: CAATCTGAATTCCGGTCTCCC
DNA 2: TGGTGGCTACGACGGGATT
B31: UGCGCAG (DNA:RNA)
RNA: B3 RNA with C25U, A26G, C28G, A29C, C31G
DNA 1: CAATCTGAATTCCGGTCTCCC
DNA 2: TGGTGGCTACGACGGGATT

Target: T1, RBFOX1 RRM
Test: EMSA; HiTS-Eq, 1 nM pool, 10 min; buffer printed only for the single-RNA assays: 10 mM Tris pH 7.5, 150 mM NaCl, 3.4 mM EDTA, 0.001% NP-40, 30 C
Details: tags: His6 N-terminal (pET28a); label: 5' 32P
Procedure, shortened: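 A pool of RNA with 7 randomized nucleotides, 5′-radiolabelled and with DNA-annealed flanks, was equilibrated at 1 nM for 10 min in 50 µL with purified RbFox RRM, wild type or mutant, across increasing protein concentrations. Free RNA was separated by 8% native PAGE, excised, reverse-transcribed, barcoded by PCR and sequenced. Relative association constants were obtained from read-count changes of each RNA species versus the control reaction and normalised to the cognate motif.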

Row | Binder | binding signal
1 | B1 | 0.00282 KA relative to UGCAUGU
2 | B2 | 0.032 KA relative to UGCAUGU
3 | B3 | 0.000216 KA relative to UGCAUGU
4 | B4 | 0.0183 KA relative to UGCAUGU
5 | B5 | 0.0185 KA relative to UGCAUGU
6 | B6 | 0.0135 KA relative to UGCAUGU
7 | B7 | 0.00276 KA relative to UGCAUGU
8 | B8 | 0.00965 KA relative to UGCAUGU
9 | B9 | 0.013 KA relative to UGCAUGU
10 | B10 | 0.0191 KA relative to UGCAUGU
11 | B11 | 0.00177 KA relative to UGCAUGU
12 | B12 | 0.0193 KA relative to UGCAUGU
13 | B13 | 0.00472 KA relative to UGCAUGU
14 | B14 | 0.00706 KA relative to UGCAUGU
15 | B15 | 0.00778 KA relative to UGCAUGU
16 | B16 | 0.00197 KA relative to UGCAUGU

Row | Binder | binding signal
17 | B17 | 0.0177 KA relative to UGCAUGU
18 | B18 | 0.00694 KA relative to UGCAUGU
19 | B19 | 0.0304 KA relative to UGCAUGU
20 | B20 | 0.0101 KA relative to UGCAUGU
21 | B21 | 0.00977 KA relative to UGCAUGU
22 | B22 | 0.0138 KA relative to UGCAUGU
23 | B23 | 0.00103 KA relative to UGCAUGU
24 | B24 | 0.000387 KA relative to UGCAUGU
25 | B25 | 0.0172 KA relative to UGCAUGU
26 | B26 | 0.913 KA relative to UGCAUGU
27 | B27 | 0.00258 KA relative to UGCAUGU
28 | B28 | 0.00364 KA relative to UGCAUGU
29 | B29 | 0.0122 KA relative to UGCAUGU
30 | B30 | 0.00615 KA relative to UGCAUGU
31 | B31 | 0.0191 KA relative to UGCAUGU
